Some of these densities may be calculated back from excess volumes.
Assay: xn = mol fraction of the nth substance listed
Conditions: 101 kPa

CC(=O)[O-].CCCCC[n+]1ccccc1 + O
mass density [kg/m3]
Conditions	x1 = 0.9036	x1 = 0.9143	x1 = 0.9294	x1 = 0.9469	x1 = 0.9706	x2 = 0.0046
293.15 K	1267.1	1267.5	–	1268.6	1269.6	1270.6
298.15 K	1264.1	1264.5	1265	1265.7	1266.7	1267.9
303.15 K	1261	1261.4	1261.8	1262.7	1263.8	1264.9
308.15 K	1258	1258.4	1258.9	1259.7	1260.8	1261.9
313.15 K	1255	1255.5	1255.9	1256.8	1257.8	–
318.15 K	1252	1252.4	1253	1254	1254.8	1255.9
323.15 K	1249	1249.7	–	–	1251.8	1252.9
328.15 K	1245.9	1246.6	1247.1	–	–	1250
333.15 K	1242.8	–	1244	1244.9	1245.8	1247
338.15 K	1239.9	–	1241	1242	–	1244
343.15 K	1237.1	1237.7	1238.2	1239	1239.8	1241.1
